34 variants from the RNAGym collection of RNA variant scans (doi:10.1093/nar/gkz1192) can be followed below.

The source gives no read counts; variants with many changes may rest on few reads.

B1: CPEB3 Ribozyme (parent)
chain: UAACAGGGGGCCACAGCAGAAGCGUUCACGUCGCAGCCCCUGUCAGAUUCUGGUGAAUCUGCGAAUUCUGCUGUAUAUCUC

Variants of B1 are the subject of this data set. As to the kind of experiment: self-cleavage, relative activity (ratio to wild type); higher = more cleavage; in vitro, sequencing. The essentials: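 Barcoded CPEB3 ribozyme mutants, produced by rounds of error-prone PCR, self-cleaved while being transcribed with T7 RNA polymerase for 5 hours at 37°C and during a subsequent 15 min DNase I step before EDTA was added. Sequencing of template-switched cDNA on Illumina gave cleaved and total reads, and DNA sequencing assigned barcodes to variants. Each variant's relative activity is its cleaved/total read fraction divided by the unmutated ribozyme's fraction, averaged across three batches. A variant needed a minimum of 5 reads.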
Turning to GAACAGGGGGCCACAGCAGAAGUGUUCGCGUCGCAGCCCCUGUCAGAUUCUGGUGAAUCUGCGGAUUCUGCUGUAUAUCCC [U1G C23U A28G A64G U80C], the self-cleavage amounted to 0.14.

Regarding CAACAGGGGGCCACAGCAGAAGCGUUCACGUCGCAGCCCCUGCCAGAUUCUGGUGAAUCUGCGAAUUCUGCUGUAUAACUC [U1C U43C U78A], the self-cleavage stood at 0.71.

For GAACAGGGGGCCACAGCUGAAGCGUUCACGUCGCAGCCCCUGUCAGAUUUUGGUGAAUCUGCGAAUUCUGCUGUAUAUCUC [U1G A18U C50U], the self-cleavage was determined as 0.37.

With GUACAGGGGGCCACAGCGGAAGCGUUCACGUCGCAGCCCCUGUCAGAUUCUGGCGAAUCUGCGAAUUCCGCUGUGUAUCUC [U1G A2U A18G U54C U69C A75G], the self-cleavage turned out to be 0.91.

In the case of CAACAGGGGGCCACAGCAGAAGCGUUCACGUCGCAGCCCCUGUCAGAUUCUGGUGAAUCUGCGAAUUCCGCUGUAUAUCUU [U1C U69C C81U], the self-cleavage came to 0.51.

In the case of GAACGGGGGGCCACAGCAGAAGCGUUCACGUCGCAGCCCCUGUCAGAUCCUGGUGAAUCUGCGAAUUCUGCUGCAUAUCUC [U1G A5G U49C U74C], the self-cleavage was found to be 0.54.

For the variant CAACAGGGGGCCACAGCAGAAGCGUUCACGUCGCAGCCCCCGUCAGAUUCUGGUGAAUCAGCGAAUUCUGCUGUAUAUCUC [U1C U41C U60A], the self-cleavage stood at 0.58.

Turning to CAACAGGGGGCCACAGCAGAAGCGUUCACGUCGCAGCCCCCGCCAGAUUCUGGUGAAUCUGCGAAUUCUGCUGUAUAUCUC [U1C U41C U43C], the self-cleavage is 0.41.

As for CAACAGGGGGCCACAGCAGAAGCGUUCACGUCGCAGCCCCUGUCAGAUUCUGGUGAACCUGCAUAUUCUGCUGUAUAUCUC [U1C U58C G63A A64U], the self-cleavage was 0.16.

Regarding CAACAGGGGGCCACAGCAGAAGCGUUCACGUCGCAGCCCCUGUCAGAUUCUGGUGAAUCUGCGAAUUCUGCGGUAUCUCUC [U1C U72G A77C], the self-cleavage is 0.38.

Take GAACAGGGGGCCAUUGCAGAAGCGUUCACGUUGCAGCCCCUGUCAGAUUCUGGUGAAUCUGCGAAUCCUGCUGUAUAUCUC [U1G C14U A15U C32U U67C]: the self-cleavage was 0.21.

As to CAACAGGGGGCCACAGCAGAAGCGUUCACGUCGCAGCCCCAGUCAGAUUCUGGUGGAUCUGCGAAUUCUGCUGUUUAUCUC [U1C U41A A56G A75U], the self-cleavage came to 0.06.

For the variant CAACAGGGGGCCACAGCAGAAGCGUUCACGUCGCAGCCCCUGUCAGAUUCUGGUGAAUCAGCGAGUUCCGCUGUAUACCUC [U1C U60A A65G U69C U78C], the self-cleavage was found to be 0.17.

Regarding CAACAGGGGGCCACAGCAGAAGCGUUCACGUCGCAGCCCCUGACAGACUCUGGUUAAUCUGCGAAUUCUGCUGUAUAUCUC [U1C U43A U48C G55U], the self-cleavage is 0.27.

In the case of CAACAGGGGGCCACAGCAGAAGCGUUCACGUCGCAGCCCCUGCCAGAUUCAGGUGAAUCUGCGAAUUCUGCUGUAUAUCUC [U1C U43C U51A], the self-cleavage came to 0.61.

For CAACAGGGGGCCACAGCAGAAGCGUUCACGUCGCAGCCCCCGUCAGAUUCUGGUGAGUCUGCGAAUUCUGCGGUAUAUCUC [U1C U41C A57G U72G], the self-cleavage was 0.76.

Turning to CAACAGGGGGCCACAGCAGAAGCGUUCACGUCGCAGCCCCCAUCGGAUUCUGGUGAAUCUGCGAAUUCUGCUGUAUAUCUC [U1C U41C G42A A45G], the self-cleavage was found to be 0.48.

Regarding GAACAGGGGGCCACAGCAGGAGCGUUCACGUCGCAGCCCCUGUCAGAUUCUGGUGAAUCUGCGAAUUCUGCUGCAUAUCCC [U1G A20G U74C U80C], the self-cleavage amounted to 1.09.

Turning to CAACAGGGGGCCACAGCAGAAGCGUUCACGUCGCAGCCCCUGUCAGAUUCUGGUGAAUCUGCGAAUCCUGCUGUAUGUCUC [U1C U67C A77G], the self-cleavage is 0.29.

On to CAACAGGGGGCCACAGCAGAAGCGUUCACGUCGCAGCCCCCGUCAGAUUCUGGUGGAUUUGCGAAUUCUGCAGUAUAUCUC [U1C U41C A56G C59U U72A], for which the self-cleavage stood at 0.32.

In the case of GAACAGGGGGCCUCAGCAGAGGCGUUCGCGUCGCAGCCCCUGUCCGAUUCCGGUGAAUCUGCGAAUUCUGCUGUAUAUCUC [U1G A13U A21G A28G A45C U51C], the self-cleavage amounted to 0.04.

Consider CAACAGGGGGCCACAGCAGAAGCGUUCACGUCGCAGCCCCUGUCAGAUCCUGGUGAAUCUGCGAAUUCUGCCGUAUAUCUC [U1C U49C U72C], for which the self-cleavage was 0.31.

With CAACAGGGGGCCACAGCAGAAGCGUUCACGUCGCAGCCCCGGUCAGAUUCUGGUGAAUCUGCGAAUUCUGCUGCAUGUCUC [U1C U41G U74C A77G], the self-cleavage worked out at 0.25.

Turning to GAACAGGGGGCCACAGCAGAAGCGUUCACGUCGCAGCCCCUGUCAGUUUCUGGUGAAUCUGCGAAUUCAGCUGUAUAUCUC [U1G A47U U69A], the self-cleavage amounted to 0.07.

Take CAACAGGGGGCCACAGCAGAAGCGUUCACGUCGCAGCCCCUGCCAGAUUCUGGUGGAUCUGCGAAUUCUGCUGUUUAUCUC [U1C U43C A56G A75U]: the self-cleavage is 0.15.

With CAACAGGGGGCCACAGCAGAAGCGUUCACGUCGCAGCCCCAGUCAGAUUUUGGCGAAUCUGCGAAUUCUGCUGUAUAUCUC [U1C U41A C50U U54C], the self-cleavage is 0.13.

Consider CAACAGGGGGCCACAGCAGAAGCGUUCACGUCGCAGCCCCUGUCAGAUUCCGGUGAAUACGCGAAUUCUGCUGUAUAUCUC [U1C U51C C59A U60C], for which the self-cleavage is 0.12.

Consider CAACAGGGGGCCACAGCAGAAGCGUUCACGUCGCAGCCCCUGUCAGAUUCAGGUGUAUCUGCGAAUUCUGCUGUAAAUCUC [U1C U51A A56U U76A], for which the self-cleavage came to 0.49.

Take CAACAGGGGGCCACAGCAGAAGCGUUCACGUCGCAGCCCCUGUCAGAUUCUGGUGAAUCCGCGAAUUCAGCUGUAUAUCUC [U1C U60C U69A]: the self-cleavage was 0.49.

As to GAACAGGGGGCCACAGCAGAGGCGUUCACGUCGCAGCCCCUGUCAGAUUCUGGUGAAUCCGCGAAUUCUGCUGUAUGUCUC [U1G A21G U60C A77G], the self-cleavage is 0.35.

Consider CAACAGGGGGCCACAGCAGAAGCGUUCACGUCGCAGCCCCAGUCAGAUUCUGGUGAAUCUGCGAAUUCUGCUGUGUAUCUC [U1C U41A A75G], for which the self-cleavage was 0.27.

Take CAACAGGGGGCCACAGCAGAAGCGUUCACGUCGCAGCCCCUGUCAGAUUCUGGUGAAUCUGCGAAUCCCGCUGUAUACCUC [U1C U67C U69C U78C]: the self-cleavage worked out at 0.13.

For CAACAGGGGGCCACAGCAGAAGCGUUCACGUCGCAGCCCCCGAGAGAUUCUGGUGAAUCUGCGAAUUCUGCCGUAUAUCUC [U1C U41C U43A C44G U72C], the self-cleavage was found to be 1.08.

On to CAACAGGGGGCCACAGCAGAAGCGUUCACGUCGCAGCCCCAGUCAGAUUCUGGUGGAUCUGCGAAUUCUGCUGUAUAUCUC [U1C U41A A56G], for which the self-cleavage is 0.25.
